# Laboratory results reported in PubChem BioAssay (Tox21).
# Where “and” joins values, the source holds several entries; their conditions need not be identical. Identical values can stand only once. Inconclusive results, whose numbers are uncertain, are shown with a selection of clear calls. Potencies beside an inconclusive call are fits to weak or partial responses and may not hold up. More than one record can exist for a structure, and the calls need not agree. Calls of active or inactive are those of the source. Unless noted, the call rests on the fitted dose curve; in most records, active means well fitted curve in the direction sought with a large enough effect in the repeat runs; inconclusive means weak or mixed curves; inactive means no such curve, though single readings can be large; an effect the other way counts as inactive or inconclusive.
# Experiments:
# [1] = qHTS assay to identify small molecule antagonists of the estrogen related receptor (ERR) signaling pathway from Tox21 library - cell viability counter screen (AID 1224834); conditions: ERR reporter cells viability, CellTiter-Fluor, 17.5 h; series mostly up to 92.4 µM; further: nearly all actives have a fitted effect of over 30% in size
# Summary of the method: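 Multiplexed viability counter screen in ERR cells: 17.5 h compound exposure at 37 C, CellTiter-Fluor added, 30 min at 37 C/5% CO2, fluorescence read.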
# [2] = qHTS assay to identify small molecule agonists of the constitutive androstane receptor (CAR) signaling pathway - cell viability counter screen (AID 1224836); conditions: HepG2-CYP2B6-hCAR viability, CellTiter-Fluor, 23 h, PK11195 added to every well; series mostly up to 92.4 µM; further: nearly all actives have a fitted effect of over 45% in size
# Summary of the method: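 Compound titrations (15 concentrations) went onto HepG2-CYP2B6-hCAR cells 4 h after seeding, alongside PK11195 at a final 0.75 uM; a 23 h, 37 C/5% CO2 incubation preceded CellTiter-Fluor viability measurement.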
# [3] = qHTS assay to identify small molecule antagonists of the estrogen related receptor signaling pathway with the pleiotropic PPARgamma coactivator (PGC) from Tox21 10K library - cell viability counter screen (AID 1224840; active means well fitted cell-killing curve with a large enough effect in the repeat runs, not every such curve was filed as active; inconclusive means weak or mixed curves, or effect the other way; inactive means no such curve, though single readings can be large or run the other way; further: nearly all actives have a fitted effect of over 40% in size); conditions: PGC/ERR reporter cells viability, CellTiter-Fluor, 17.5 h; series mostly up to 92.4 µM
# Summary of the method: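 Fluorescence read-out of CellTiter-Fluor viability reagent, added after cells had been exposed to compound in DMSO for 17.5 h at 37 C; 30 min development at 37 C/5% CO2. Cells: PGC/ERR line, 2,000/well.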
# [4] = molecular target: Thyrotropin receptor (Homo sapiens) (UniProt P16473); test: qHTS assay to identify small molecule agonists of the thyroid stimulating hormone receptor (TSHR) signaling pathway (AID 1224843; calls by dose curve; further: nearly all actives have a fitted effect of over 45% in size; on activation: on the % scale 0 is the no-effect control and ±100 the full control effect); conditions: TSHR-HEK293 cells, cAMP HTRF, agonist mode, 30 min; activation: at 92.4 µM (top of the series) unless noted
# UniProt P16473, sequence (P16473 whole entry, looked up): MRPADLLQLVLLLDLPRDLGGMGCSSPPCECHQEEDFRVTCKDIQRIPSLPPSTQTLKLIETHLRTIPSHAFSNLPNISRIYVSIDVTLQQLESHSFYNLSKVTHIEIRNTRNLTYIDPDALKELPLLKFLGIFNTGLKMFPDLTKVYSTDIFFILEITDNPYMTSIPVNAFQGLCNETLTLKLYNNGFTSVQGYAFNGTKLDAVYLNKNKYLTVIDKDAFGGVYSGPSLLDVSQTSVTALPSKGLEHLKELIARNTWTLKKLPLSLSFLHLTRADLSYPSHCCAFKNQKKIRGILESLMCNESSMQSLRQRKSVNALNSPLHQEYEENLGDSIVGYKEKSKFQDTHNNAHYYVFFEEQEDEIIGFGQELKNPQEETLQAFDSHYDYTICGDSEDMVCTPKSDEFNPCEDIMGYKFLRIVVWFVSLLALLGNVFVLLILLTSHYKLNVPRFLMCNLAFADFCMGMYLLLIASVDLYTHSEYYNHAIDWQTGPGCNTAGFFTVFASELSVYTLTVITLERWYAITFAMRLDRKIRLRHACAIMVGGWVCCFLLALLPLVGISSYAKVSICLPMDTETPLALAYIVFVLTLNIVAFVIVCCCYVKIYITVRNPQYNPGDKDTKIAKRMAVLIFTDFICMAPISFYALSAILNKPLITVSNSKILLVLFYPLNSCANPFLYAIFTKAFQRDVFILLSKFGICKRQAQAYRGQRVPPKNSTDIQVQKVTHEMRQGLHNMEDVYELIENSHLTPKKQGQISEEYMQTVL
# Summary of the method: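 Using 15 concentrations per compound in triplicate, cAMP production was monitored in TSHR-HEK293 cells after 30 min compound incubation at RT; HTRF reagents followed, with fluorescence intensity recorded after 1 h.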
# [5] = qHTS assay to identify small molecule agonists of the hypoxia (HIF-1) signaling pathway - cell viability counter screen (AID 1224844; calls by dose curve; further: nearly all actives have a fitted effect of over 50% in size); conditions: HRE-bla ME-180 viability, CellTiter-Glo luminescence, 17 h; series mostly up to 76.8 µM
# Summary of the method: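 CellTiter-Glo luminescence read-out, 30 min RT, taken in the same wells as the beta-lactamase HRE reporter assay; HRE-bla ME-180 cells, 0.5% dialyzed FBS, 17 hr compound treatment at 37C, 5% CO2.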
# [6] = qHTS assay to identify small molecule agonists of the hypoxia (HIF-1) signaling pathway (AID 1224846; active means well fitted activation curve with a large enough effect in the signal ratio in the repeat runs, not every such curve was filed as active; inconclusive means weak or mixed curves; the % refers to the signal ratio; on activation: on the % scale 0 is the no-effect control and ±100 the full control effect); conditions: HRE-bla ME-180 cells, beta-lactamase ratio, 17 h; activation: at 76.8 µM (top of the series) unless noted
# Summary of the method: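 Beta-lactamase FRET read-out (CCF4-AM substrate) from ME-180 cells carrying an HRE-driven bla reporter, after 17 hrs compound exposure at 37C/5% CO2. Cells were seeded at 2,000 per well in 0.5% dialyzed FBS medium and preincubated 5 hrs.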
# [7] = qHTS RealTime-Glo MT Cell Viability Assay in HepG2 cells - 24 hour (AID 1224867); conditions: RealTime-Glo luminescence; series mostly up to 76.8 µM; further: nearly all actives have a fitted effect of over 50% in size
# Summary of the method: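 HepG2 cells were seeded at 600 cells/well together with NanoLuc luciferase and a cell-permeant prosubstrate, preincubated 5 h at 37 C/5% CO2, then pin-dosed with compounds in DMSO. Nonlytic luminescence from viable cells was read at each time point.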
# [8] = qHTS RealTime-Glo MT Cell Viability Assay in HEK293 cells - 32 hour (AID 1224868); conditions: RealTime-Glo luminescence; series mostly up to 76.8 µM; further: nearly all actives have a fitted effect of over 50% in size
# Summary of the method: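 HEK293 cells were seeded at 600 cells/well together with NanoLuc luciferase and cell-permeant prosubstrate, preincubated 5 h at 37 C/5% CO2, then given compound in DMSO by pintool. Luminescence from viable-cell prosubstrate reduction was read repeatedly over 40 h.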
# [9] = molecular target: Nuclear receptor subfamily 1 group I member 3 (Homo sapiens) (UniProt Q14994); test: qHTS assay to identify small molecule agonists of the constitutive androstane receptor (CAR) signaling pathway (AID 1224839); conditions: HepG2 hCAR CYP2B6-luciferase, agonist mode, 24 h; series mostly up to 92.4 µM; further: nearly all actives have a fitted effect of over 15% in size
# UniProt Q14994, sequence (Q14994 whole entry, looked up): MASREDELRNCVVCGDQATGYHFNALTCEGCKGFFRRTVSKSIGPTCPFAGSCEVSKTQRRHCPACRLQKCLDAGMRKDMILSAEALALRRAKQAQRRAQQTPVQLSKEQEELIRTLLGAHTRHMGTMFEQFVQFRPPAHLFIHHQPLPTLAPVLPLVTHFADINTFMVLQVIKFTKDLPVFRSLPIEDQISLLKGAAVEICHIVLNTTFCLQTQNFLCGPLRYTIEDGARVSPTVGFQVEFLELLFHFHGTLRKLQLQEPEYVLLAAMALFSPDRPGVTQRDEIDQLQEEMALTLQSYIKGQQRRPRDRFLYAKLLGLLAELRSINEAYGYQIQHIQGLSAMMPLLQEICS
# Summary of the method: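 In this screen, CAR-driven CYP2B6 promoter activity is measured by luminescence in HepG2-CYP2B6-hCAR cells after 24 h with test compounds and 0.75 uM PK11195 (final concentration).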
# [10] = qHTS assay to identify small molecule antagonists of the estrogen related receptor signaling pathway with the pleiotropic PPARgamma coactivator (PGC) from Tox21 10K library (AID 1224841; call rule not given here; further: actives are mostly falling curves and most rising ones were filed inactive; nearly all actives have a fitted effect of over 50% in size); conditions: PGC/ERR reporter cell line, ONE-Glo luciferase, 18 h; series mostly up to 92.4 µM
# Summary of the method: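 Luminescence read-out (One-Glo luciferase reagent, 30 min at room temperature) from PGC/ERR cells exposed to DMSO-dissolved test compounds for 18 h at 37 C; cells, 2,000 per well, had been preincubated 6 h before compound transfer.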
# [11] = qHTS assay to identify small molecule agonists of H2AX (AID 1224845; active means well fitted activation curve with a large enough effect in the signal ratio in the repeat runs, not every such curve was filed as active; inconclusive means weak or mixed curves; the % refers to the signal ratio); conditions: CHO-K1 phospho-H2AX Ser139 HTRF, 3 h; activation (H2AX phosphorylation): at 154 µM (top of the series) unless noted
# Summary of the method: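 Wild-type CHO-K1 cells plated overnight, then exposed 3 hr at 37C to compounds at 15 concentrations (0.76% DMSO). Lysed, then HTRF anti-pH2AX(S139)-cryptate/anti-H2AX-d2 detection after 24 hr at room temperature; emissions 665 and 620 nm.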
# [12] = qHTS assay to identify small molecule agonists of H2AX - cell viability counter screen (AID 1224847; calls by dose curve; further: nearly all actives have a fitted effect of over 30% in size); conditions: CHO-K1 viability, CellTiter-Glo luminescence, 3 h; series mostly up to 154 µM
# Summary of the method: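 Read-out: CellTiter-Glo luminescence, 30 min RT. Cells: wild-type CHO-K1, 1000/well, 10% FBS, plated overnight at 37C. Treatment: 15 concentrations, 3 hr, 37C, 0.76% DMSO.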
# [13] = qHTS assay to identify small molecule antagonists of the estrogen related receptor (ERR) signaling pathway from Tox21 library (AID 1224848); conditions: ERR reporter cell line, luciferase antagonist mode, 18 h; series mostly up to 92.4 µM; further: nearly all actives have a fitted effect of over 50% in size
# Summary of the method: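 Tox21 10K compounds in DMSO tested for ERR pathway antagonism in NTP's ERR cell line; 18 h, 37 C exposure; ONE-Glo luminescence.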
# [14] = qHTS assay to identify small molecule antagonists of the constitutive androstane receptor (CAR) signaling pathway - cell viability counter screen (AID 1224837); conditions: HepG2-CYP2B6-hCAR viability, CellTiter-Fluor, 23 h, co-treated with 50 nM CITCO; series mostly up to 92.4 µM; further: nearly all actives have a fitted effect of over 45% in size
# Summary of the method: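 Read-out: CellTiter-Fluor fluorescence after 23 hr at 37 C/5% CO2. Cells: HepG2 double-stable for hCAR and CYP2B6-2.2kb. Compounds tested at 15 concentrations in the presence of CITCO, final concentration 50 nM.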
# [15] = qHTS assay to identify small molecule agonists of the estrogen related receptor signaling pathway with the pleiotropic PPARgamma coactivator (PGC) from Tox21 10K library (AID 1224842); conditions: PGC/ERR reporter cell line, luciferase ONE-Glo, 18 h; series mostly up to 42.5 µM; further: nearly all actives have a fitted effect of over 15% in size
# Summary of the method: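 PGC/ERR reporter cells (NTP line) were seeded 2,000 per well, rested 6 h at 37 C/5% CO2, then pin-dosed with compounds in DMSO for 18 h at 37 C; luciferase read by One-Glo luminescence after 30 min at room temperature.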
# Potency means the concentration at half of the fitted maximal effect; tags describe the fitted curve by direction and shape or compound fluorescence and quenching.
structure (smiles),measurement,setting,value
CCN(Cc1cccnc1)C(=O)c1cccc(Cl)c1[C@]1(C)C(=O)N(Cc2ccc(OC)cc2OC)c2ccc(Cl)cc21,Potency,[1],active: 28.6 µM
same,Potency,[2],"inconclusive: 64.1 µM [cytotoxic, single point]"
same,Potency,[3],"inconclusive: 28.6 µM [cytotoxic, partial curve]"
same,activation,[4],inconclusive: 31%
same,Potency,[5],"inconclusive: 9.13 µM [cytotoxic, partial curve]"
same,Potency,[6],"inconclusive: 36.3 µM [falling, partial curve]"
same,Potency,[7],"inconclusive: 18.2 µM [falling, partial curve]"
same,Potency,[8],active: 20.4 µM
Cc1cc(=O)oc2cc(O)cc(O)c12,Potency,[1],inactive
same,Potency,[2],"inconclusive: 61.3 µM [rising, partial curve]"
same,Potency,[9],"inconclusive: 54.6 µM [activator, partial curve]"
same,Potency,[10],"inconclusive: 9.72 µM [falling, full curve]"
same,Potency,[5],"inconclusive: 31 µM [cytotoxic, partial curve]"
same,Potency,[11],"inconclusive: 101 µM [falling, partial curve, poor fit]"
same,Potency,[6],"inconclusive: 61.9 µM [activator, partial curve, poor fit]"
same,Potency,[12],"inconclusive: 127 µM [rising, partial curve, poor fit]"
same,Potency,[13],"inconclusive: 34.5 µM [inhibitor, partial curve, poor fit]"
CNCCCN1c2ccccc2CCc2ccccc21,Potency,[1],"inconclusive: 29.8 µM [cytotoxic, partial curve]"
same,Potency,[2],inconclusive: 29.8 µM [cytotoxic]
same,Potency,[14],"inconclusive: 29.8 µM [cytotoxic, partial curve, poor fit]"
same,Potency,[5],"inconclusive: 26.8 µM [cytotoxic, partial curve, poor fit]"
same,Potency,[7],"inconclusive: 23.9 µM [falling, single point]"
same,Potency,[8],"inconclusive: 26.8 µM [cytotoxic, single point]"
Nc1c2ccccc2nc2ccccc12,Potency,[1],"inconclusive: 3.02 µM [cytotoxic, full curve] and inconclusive: 2.98 µM [cytotoxic, full curve]"
same,Potency,[2],"inconclusive: 53.8 µM [rising, partial curve]"
same,Potency,[14],"inconclusive: 60.3 µM [rising, partial curve]"
same,Potency,[3],inconclusive: 53.8 µM
same,Potency,[10],active: 53.8 µM
same,Potency,[15],"inconclusive: 18.8 µM [activator, single point]"
same,activation,[4],inconclusive: -26.3%
same,Potency,[5],"inconclusive: 6.74 µM [cytotoxic, partial curve]"
same,Potency,[11],"active: 88.6 µM and inconclusive: 61.9 µM [activator, single point]"
same,Potency,[6],"inconclusive: 34.2 µM [falling, partial curve] and inconclusive: 21.3 µM [falling, partial curve]"
same,Potency,[13],"inconclusive: 2.98 µM [inhibitor, full curve]"
Oc1ccccc1O,Potency,[1],"inconclusive: 54.5 µM [cytotoxic, partial curve]"
same,Potency,[2],inconclusive: 69.4 µM [cytotoxic]
same,Potency,[14],"inconclusive: 43.8 µM [cytotoxic, partial curve, poor fit]"
same,Potency,[9],"inconclusive: 55.1 µM [activator, partial curve] and inconclusive: 48.6 µM [activator, partial curve]"
same,Potency,[3],"inconclusive: 34.8 µM [cytotoxic, partial curve] and inconclusive: 24.3 µM [cytotoxic, partial curve]"
same,Potency,[5],"inconclusive: 22.1 µM [cytotoxic, full curve] and inconclusive: 38.9 µM [cytotoxic, partial curve]"
O=C1Nc2ccccc2C1(c1ccc(O)cc1)c1ccc(O)cc1,Potency,[1],"inconclusive: 37.6 µM [cytotoxic, single point]"
same,Potency,[2],"inconclusive: 68.6 µM [cytotoxic, single point]"
same,Potency,[14],"inconclusive: 77 µM [cytotoxic, partial curve, poor fit]"
same,Potency,[3],"inconclusive: 61.1 µM [cytotoxic, single point]"
same,Potency,[4],inactive
same,Potency,[5],"inconclusive: 219 nM [cytotoxic, full curve] and inconclusive: 107 nM [cytotoxic, full curve]"
same,activation,[6],inconclusive: 12.5%
same,Potency,[12],inactive
CC(O)C#CC(C)O (stereo not drawn),Potency,[1],inconclusive: 67.9 µM [cytotoxic]
same,Potency,[2],"inconclusive: 60.5 µM [cytotoxic, single point]"
same,Potency,[3],inconclusive: 67.9 µM [cytotoxic]
same,Potency,[4],inconclusive: 67.9 µM [activator]
same,Potency,[5],"inconclusive: 54.4 µM [cytotoxic, single point]"
same,Potency,[11],"inconclusive: 99.7 µM [falling, single point]"
same,Potency,[6],"inconclusive: 43.2 µM [falling, partial curve]"
same,Potency,[12],"inconclusive: 50 µM [rising, full curve]"
same,Potency,[7],"inconclusive: 54.4 µM [falling, single point]"
same,Potency,[8],"inconclusive: 61.1 µM [cytotoxic, single point]"
